Data reported in PubChem BioAssay AID463173 (ICCB-Longwood Screening Facility, Harvard Medical School, 2010).
In all, about 52,000 compounds went through this assay and about 4,300 (8.3%) were called active. Rule as the data show it: active = survival mostly below about 52% (no sharp cut-off); inactive = mostly above about 56%. The list shows a part of the results.

Test system: DeltatarO mutant
Test: S. aureus survival, RN4220 and DeltatarO strains – OD600, teichoic acid synthesis inhibitors, primary screen (AID 463173)
Conditions: S. aureus RN4220 wild type/DeltatarO growth, OD600, 18 h, hits give low values, screened at 18.75 µg/mL (by protocol)

| SMILES | survival |
| --- | --- |
| COc1ccccc1CNC(=O)CSc1nc(=O)[nH]c2c1CCCC2 | inactive: 101% |
| CCN(Cc1ccccc1)C(=O)Cn1c(=O)n(-c2ccc(Cl)c(Cl)c2)c(=O)c2c(C)c(C(=O)N(C)C)sc21 | inactive: 64% |
| Cc1ncsc1C(=O)O | inactive: 86% |
| Cc1ccc(NC(=O)CCn2c(=O)c3cccn3c3ccccc32)cc1Cl | active: 45% |
| O=C(CSc1nc(=O)n(Cc2ccco2)c2c1CCC2)NCc1ccc(Cl)cc1 | inactive: 69% |
| C=CCSc1nc(O)c(CC(C)C)c(=O)[nH]1 | inactive: 62% |
| COc1cc(OC)c(NC(=O)Cn2cnc3sc(C)c(S(=O)(=O)N4CCC(C)CC4)c3c2=O)cc1Cl | inactive: 83% |
| COc1ccc(N2CC(NC(=O)C(=O)c3c(C)[nH]c4ccccc34)CC2=O)cc1 (stereo not drawn) | inactive: 89% |
| CCc1ccc(CNC(=O)C2CCN(c3nnc(C)c4c(C)n(-c5ccc(C)cc5)nc34)CC2)cc1 | inactive: 78% |
| CCOc1ccc(N(C(C)C(=O)NCCSc2ccc(Cl)cc2)S(C)(=O)=O)cc1 (stereo not drawn) | inactive: 54% |
| Cc1cc(NC(=O)c2cc(-c3ccc(Br)cc3)on2)nn1Cc1ccc(Cl)cc1 | inactive: 155% |
| CC(=O)c1cccc(-n2c(=O)c3c4c(sc3n(CC(=O)Nc3ccccc3F)c2=O)CN(C(C)=O)CC4)c1 | inactive: 123% |
| CCOC(=O)Cn1c(=O)c2c(nc(N3CCOCC3)n2Cc2ccccc2)n(C)c1=O | active: 43% |
| CC(C)(CC(=O)OCC(=O)Nc1ccccc1F)CC1=NS(=O)(=O)c2ccccc2N1 | inactive: 76% |
| O=C(COc1ccc([N+](=O)[O-])cc1)N1CCC(c2nc3ccccc3s2)CC1 | inactive: 82% |
| Cc1ccc(-c2nnc(SCC(=O)N3CCCc4ccccc43)o2)cc1 | inactive: 63% |
| CCCCNc1nc(Oc2ccc(=O)n(-c3ccccc3)n2)nc(N(CC)CC)n1 | inactive: 81% |
| COc1ccc(NCc2nnc(SCC(=O)c3ccc(OC)cc3)n2C)cc1 | inactive: 76% |
| O=C(Nc1nnc(S(=O)(=O)N2CCCCCC2)s1)c1ccccc1F | active: 47% |
| CCOC(=O)C1CCN(c2cc(C)nc3c(-c4ccccc4OC)c(C)nn23)CC1 | inactive: 70% |
| O=C(Cn1nc(-c2ccccc2)c2cnc3ccc(F)cc3c21)NC1CCCC1 | inactive: 102% |
| CCCCNC(=O)Cn1c(-c2ccc(C)cc2)noc1=O | inactive: 102% |

| SMILES | survival |
| --- | --- |
| CCOc1cccc2sc(N3CCN(C(=O)C(C)(C)C)CC3)nc12 | inactive: 77% |
| COc1ccc(NC(=O)Cn2cc(C(=O)c3ccncc3)c(=O)c3cc(C)ccc32)cc1Cl | inactive: 75% |
| COc1ccc(CNC(=O)CCc2c(C)c3ccc(OC)c(C)c3oc2=O)cc1OC | inactive: 80% |
| Cc1cccc(Cn2c(SCc3ccc(C(=O)NCc4ccccc4)cc3)nc3cccnc32)c1 | active: 46% |
| CCNC(=O)C1CCCN(c2ncnc3onc(C)c23)C1 (stereo not drawn) | inactive: 101% |
| COC(=O)c1ccc(-n2nnc(-c3nc(-c4ccccc4Cl)no3)c2C)cc1 | inactive: 72% |
| Cc1ccc(C(=O)c2oc3ccccc3c2NC(=O)c2cc(=O)c3cc(C)ccc3o2)cc1 | inactive: 105% |
| COc1cccc(Cn2ccn(-c3ccc(F)cc3)c(=O)c2=O)c1 | inactive: 54% |
| Cc1ccc(NC(=O)c2nnn(Cc3cccc(C(F)(F)F)c3)c2N)c(C)c1 | inactive: 86% |
| Cc1ccc(-c2nc(C(=O)N3CCN(c4ccccc4)CC3)c3n2CCCCC3)cc1 | inactive: 66% |
| CCC(Sc1ncccc1C(=O)Oc1ccccc1Cl)C(=O)Nc1ccccc1OC (stereo not drawn) | inactive: 84% |
| COc1ccc(NC(=O)C(NC(=O)C2CCC(C)CC2)C(C)C)cc1 (stereo not drawn) | inactive: 79% |
| Cc1ccc2c(=O)c(C(=O)c3ccccc3)cn(CC(=O)Nc3ccc(C)c(Cl)c3)c2n1 | inactive: 77% |
| CCCNC(=O)c1ccc2c(c1)nc(C)n2-c1cccc(C)c1 | inactive: 83% |
| Cc1nn(C)c2c1c(C(F)(F)F)cc(=O)n2C(C)C(=O)NCCC(C)C (stereo not drawn) | inactive: 91% |
| Cc1ccc(N2C(=O)CS(=O)(=O)C23C(=O)N(Cc2ccccc2C)c2ccccc23)cc1Cl (stereo not drawn) | inactive: 74% |
| CN1CCN(C(=O)Cn2c(-c3cccs3)cc3ccccc32)CC1 | inactive: 95% |
| COc1cc(OC)cc(C(=O)Nc2ccc(-c3nc4ccccc4s3)c(C)c2)c1 | inactive: 117% |
| O=C(CSc1ccccn1)Nc1ccc(Cl)cc1 | inactive: 77% |
| Cc1nc2ccn(Cc3ccco3)c(=O)c2cc1C(=O)Nc1ccc(F)cc1 | inactive: 89% |
| COc1ccc(NC(=O)Cn2nc(-c3ccccc3)c3cnc4ccc(C)cc4c32)cc1 | inactive: 63% |
| COc1ccc(-n2c(=O)[nH]c3cc(C(=O)NCCc4ccc(Cl)cc4)ccc3c2=O)cc1OC | inactive: 85% |

| SMILES | survival |
| --- | --- |
| CCCn1cc(S(=O)(=O)c2cc(C)ccc2C)c(=O)c2cc(F)c(N3CCN(CC)CC3)cc21 | inactive: 80% |
| CCOC(=O)c1c(S(=O)(=O)NCC(=O)NCc2ccccc2Cl)c(C)n(C)c1C | inactive: 97% |
| COCCCn1c(=O)c2sccc2n2c(CCCC(=O)NC3CCC(C)CC3)nnc12 (stereo not drawn) | inactive: 82% |
| Cc1cccc(NC(=O)C2CCN(S(=O)(=O)c3ccc4c(c3)CCCN4C(=O)C3CCC3)CC2)c1 | inactive: 71% |
| Cn1c(COc2ccccc2)n[nH]c1=S | inactive: 99% |
| Cc1cccc(C)c1-n1ncc(C(=O)N2CCN(c3ncccn3)CC2)c1C1CCN(C(=O)OC(C)(C)C)CC1 | inactive: 95% |
| COc1ccc(CNC(=O)C2CCN(S(=O)(=O)c3ccc4c(c3)CCCN4C(C)=O)CC2)cc1 | inactive: 78% |
| CCc1ccccc1NC(=O)c1sc(-n2nc(C)c(Cc3ccccc3)c2C)nc1C | inactive: 92% |
| Cc1ccc(C)c(CSc2nnc3[nH]c(=O)cc(-c4ccccc4)n23)c1 | inactive: 68% |
| Cc1ccc(CNC(=O)c2cc3ccc4cccnc4c3[nH]2)cc1 | active: 32% |
| COc1ccc(-c2noc(-c3ccc(NC4CCCC4)c([N+](=O)[O-])c3)n2)cc1OC | inactive: 55% |
| COc1cc(Cl)c(C)cc1NC(c1ccccc1)c1nnc(-c2ccccc2Cl)o1 (stereo not drawn) | inactive: 69% |
| CC(=O)Nc1ccc2nc(NC(=O)CS(=O)(=O)c3ccc(C)cc3)sc2c1 | inactive: 87% |
| CCC(C)n1c(=N)c(C(=O)NC2CCCCC2)cc2c(=O)n3ccccc3nc21 (stereo not drawn) | inactive: 76% |
| COc1ccc(C2=Nc3ccc(OC(F)(F)F)cc3NC(c3cccnc3)=N2)cc1 | inactive: 67% |
| O=S(=O)(NCc1ccc2c(c1)OCO2)c1cccc2nsnc12 | inactive: 84% |
| COc1ccc(C(=O)N(Cc2ccc(N(C)C)cc2)CC2CCCO2)cc1 (stereo not drawn) | inactive: 63% |
| COc1cc(NC(=O)CSc2nc(-c3ccc(C(C)C)cc3)no2)cc(OC)c1 | inactive: 91% |
| COc1ccc(NC(=O)CSc2cn(CCNC(=O)c3c(F)cccc3F)c3ccccc23)cc1 | inactive: 76% |
| O=c1[nH]cc(COCC(F)(F)C(F)F)c(=O)[nH]1 | inactive: 74% |
| CCN1CCN(Cc2c(O)ccc3c(=O)c(Oc4ccccc4C(C)C)c(C(F)(F)F)oc23)CC1 | active: 51% |
| O=C(N1CCCC1)N1CCC(c2ccc3c(c2)OCO3)CC1 | inactive: 96% |

| SMILES | survival |
| --- | --- |
| CCCN1CCN(CCCNC(=O)Cn2nc(C)n3c(cc4c(OC)cccc43)c2=O)CC1 | inactive: 104% |
| Cc1ccc2c(c1)N(C(=O)N1CCC(C(=O)NCCc3ccccc3)CC1)CC(C)O2 (stereo not drawn) | inactive: 82% |
| CSc1nnc(-c2ccc(S(=O)(=O)N3CCCC3)cc2)n1C | inactive: 91% |
| Cc1ccc2c(=O)cc(C(=O)Nc3sc4c(c3C(=O)NCC3CCCO3)CCCC4)oc2c1C (stereo not drawn) | inactive: 85% |
| O=C(c1cccc(Cl)c1)N1c2ncnn2C2(CCCCC2)[C@@H]2CCCC[C@@H]21 | inactive: 80% |
| O=C(Nc1nc(-c2ccc3c(c2)CCN3C(=O)C2CCCCC2)cs1)c1ccco1 | inactive: 58% |
| COc1cccc(Cn2c(SCc3ccc(C(=O)N4CCCCC4)cc3)nc3ccncc32)c1 | inactive: 74% |
| O=C(Nc1nc2n(n1)C(c1ccccc1)C=C(c1ccc(Cl)cc1)N2)c1ccco1 (stereo not drawn) | inactive: 42% |
| Cc1cc(Cl)ccc1NC(=O)CN1C(=O)COc2ccc(S(=O)(=O)Nc3ccccc3)cc21 | inactive: 94% |
| COc1ccc(N(CCC#N)S(=O)(=O)c2ccc(Cl)cc2)cc1 | inactive: 89% |
| CCOC(=O)C1CCCN(C(=O)c2ccc3c(c2)sc2nc(-c4ccc(C)cc4C)cn23)C1 (stereo not drawn) | inactive: 47% |
| COc1ccc(CCNc2nc(C)cc(C)n2)cc1OC | inactive: 85% |
| COc1ccc(C)cc1NC(=O)C(Cc1ccccc1)NS(=O)(=O)c1ccc(Br)s1 (stereo not drawn) | inactive: 131% |
| O=C(COc1ccc(F)cc1)Nc1nnc(SCc2cc(=O)n3ccccc3n2)s1 | inactive: 83% |
| CCOc1ccc(-c2nonc2NC(=O)c2oc3cc(C)ccc3c2C)cc1OCC | inactive: 87% |
| COc1ccc(N2Cc3cccc(C(=O)Nc4ccc(Cl)cc4)c3C2=O)cc1 | inactive: 69% |
| Cc1nn(C)c2c1c(-c1ccccc1)cc(=O)n2Cc1ccc(F)cc1 | inactive: 122% |
| COc1ccc(-n2cc(-c3ccc4c(c3)OCO4)n(CC(=O)Nc3cc(Cl)ccc3C)c2=O)cc1 | inactive: 73% |
| COc1ccc(-n2nc3ccc(NC(=O)c4cccc(OCCC(C)C)c4)cc3n2)cc1 | inactive: 121% |
| O=C1C(c2ccccc2)NC(=S)N1C1CCCCC1 (stereo not drawn) | inactive: 79% |
| CCc1c(C)sc2c1CCN(Cc1ccccc1C#N)C2c1ccccc1 (stereo not drawn) | inactive: 99% |
| CCOc1ccc(CNC(=O)C2CCN(c3nc4ccccc4nc3C(F)(F)F)CC2)cc1OC | inactive: 98% |
